Source: patent US20230149401A1 (priority 2020, published 2023)

Target: TMPRSS2 (Homo sapiens, UniProt O15393)
Conditions: HeLa-ACE2 cells; 120 μM

Sequence of TMPRSS2 (O15393 whole entry): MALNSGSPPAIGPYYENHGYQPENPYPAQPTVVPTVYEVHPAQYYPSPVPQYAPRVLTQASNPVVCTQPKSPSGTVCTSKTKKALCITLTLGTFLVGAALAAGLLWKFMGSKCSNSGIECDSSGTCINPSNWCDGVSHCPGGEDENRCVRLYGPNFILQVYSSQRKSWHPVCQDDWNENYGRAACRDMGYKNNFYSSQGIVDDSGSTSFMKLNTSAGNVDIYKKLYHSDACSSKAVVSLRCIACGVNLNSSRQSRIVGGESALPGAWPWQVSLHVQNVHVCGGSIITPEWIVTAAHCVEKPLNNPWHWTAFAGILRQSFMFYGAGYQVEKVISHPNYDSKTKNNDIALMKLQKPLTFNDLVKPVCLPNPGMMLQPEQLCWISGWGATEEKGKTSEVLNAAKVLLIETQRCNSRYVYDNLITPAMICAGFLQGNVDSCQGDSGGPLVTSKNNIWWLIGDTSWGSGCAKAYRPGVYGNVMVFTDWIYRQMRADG

## CN(C)C(=O)COC(=O)Cc1ccc(OC(=O)c2ccc(NC(=N)N)cc2)cc1 [Camostat]
  Autocatalytic activation of TMPRSS2 at RQSR255: blocked
